PubChem BioAssay AID624417 (National Center for Advancing Translational Sciences (NCATS), 2012)
Values joined by “and” are separate entries in the source; they are usually repeats but may differ in a detail not shown here. Equal entries are not always repeated. In all, about 410,000 compounds went through this assay and about 6,400 (1.6%) were called active. Inconclusive results, whose numbers are uncertain, are shown with a selection of clear calls. Calls follow the shape of the dose curve; as a rule, active = well fitted inhibition curve with a large enough effect; inconclusive = small, poorly fitted or top-dose-only effect; inactive = no such curve, though single readings can be large or run the other way. A potency beside an inconclusive call is a rough fit, not a confirmed value.

What follows are molecules tested against Glucagon-like peptide 1 receptor (Homo sapiens) (UniProt P43220) (assay: qHTS of GLP-1 Receptor Inverse Agonists (Inhibition Mode)). Conditions: HEK293 GLP-1R CRE-luciferase, luminescence, 24 h, GLP-1R form is constitutively active; activity change, negative = inhibition: at 38.3 µM (top of the series) unless noted.
Sequence of UniProt P43220 (P43220 whole entry, looked up): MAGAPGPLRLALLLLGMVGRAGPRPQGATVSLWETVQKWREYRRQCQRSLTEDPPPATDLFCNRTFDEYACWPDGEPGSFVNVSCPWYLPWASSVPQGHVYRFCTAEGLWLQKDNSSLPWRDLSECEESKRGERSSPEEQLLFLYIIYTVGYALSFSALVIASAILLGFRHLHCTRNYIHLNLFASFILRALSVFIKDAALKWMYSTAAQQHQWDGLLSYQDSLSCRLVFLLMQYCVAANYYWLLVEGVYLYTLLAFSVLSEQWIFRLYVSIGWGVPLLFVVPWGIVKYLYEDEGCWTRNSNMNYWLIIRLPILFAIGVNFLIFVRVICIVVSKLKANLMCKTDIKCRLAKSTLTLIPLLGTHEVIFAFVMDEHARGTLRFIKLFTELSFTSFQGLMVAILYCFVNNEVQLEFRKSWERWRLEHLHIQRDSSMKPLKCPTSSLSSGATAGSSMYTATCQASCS
Method in brief: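 qHTS in 1536-well format: reporter HEK293 cells expressing constitutive GLP-1R activity in DMEM + 10% Nu serum, 24 hr with compounds at 37 deg C, luminescence read after 12 min with detection reagent.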
% is scaled to controls: 0 for no effect and ±100 for the full control effect; potency is read from the fitted curve at half-maximal effect; tags tell the direction and shape of the fitted curve.
Also: nearly all actives have a fitted effect of over 55% in size.

Activity change, negative = inhibition, inactive:
CCOC(=O)N1CCN(CCC(=O)c2ccc(OC)cc2)CC1 2.92%
COc1ccc(NC(=O)c2cc(-c3ccc(F)cc3)no2)cc1OC 11.7%
Cc1c(Cl)cccc1NC(=O)Cn1c(=O)cc(C)c2c(C)nn(-c3cccc(F)c3)c21 -8.04%
CC(C)(CC1(C)NC(=O)NC1=O)OCc1ccccc1 (centres undefined) 2.36%
O=C(c1cnc2sccn2c1=O)N1CCN(c2ccccc2Cl)CC1 19.9%
CC(C)c1c(C(=O)N/N=C/c2ccccc2C(=O)O)nnn1-c1nonc1N -9.57%
COc1ccccc1C(=O)NCC(c1ccc(N(C)C)cc1)N1CCc2ccccc21 (centres undefined) -15.2%
CCc1nc2ccccc2c(C(=O)OCC(=O)N(CCOC)c2c(N)n(Cc3ccccc3)c(=O)[nH]c2=O)c1C 34.7%
CC(C)[C@@H]1O[C@H](CCc2ccccc2)CC2=C1C(=O)OC(C)(C)O2 -27.2%
Cn1cc(C(N)=O)c2ccccc21 -10.2%
CCN(CC)C(=O)C1CCCN(c2ccc([N+](=O)[O-])cc2/C=N/NC(=O)c2ccc([N+](=O)[O-])cc2)C1 (centres undefined) 0.686%
O=C(Nc1ccc2ccccc2c1)c1cnccn1 -27.9%
Cc1cc(=O)n2[nH]cc(-c3ccccc3)c2n1 2.21%
Cc1nc(S(=O)(=O)N2CCN(c3cccc(Cl)c3)CC2)cn1C 10.5%
COc1cccc(COC(=O)c2ccc3c(c2)NC(=O)C(C)S3)c1OC (centres undefined) -22.8%
COc1ccccc1N=c1oc2cc(O)ccc2cc1C(=O)NCC1CCCO1 (centres undefined) 53.4%

Potency, active:
C[C@@H](CO)NC(=O)c1ccc2c3n(nc2c1)-c1ccccc1CO3 3.55 µM

Potency, inconclusive:
O=C(NC1CCCCCC1)c1nc2ncccn2n1 1 µM [inhibitor, full curve, poor fit]
CCCCCCCCCCOC(=O)Cn1c(COc2ccccc2C)[n+](C)c2ccccc21 28.2 µM [inhibitor, single point]
Cc1ccccc1-c1nsc(SCC(=O)NCc2ccc3c(c2)OCO3)n1 10 µM [inhibitor, partial curve]
Cc1cccc(Cn2c(N3CCCCC3C)nc3c2c(=O)[nH]c(=O)n3C)c1 (centres undefined) 22.4 µM [inhibitor, single point]
CC(C)(C)c1ccc(OCC(=O)NCc2ccco2)cc1 28.2 µM [inhibitor, single point]
CCOc1cc(S(=O)(=O)n2nc(C)cc2C)ccc1Br 11.2 µM [inhibitor, partial curve, poor fit]
CN(CC(=O)Nc1ccc(N2CCOCC2)cc1)CC(=O)Nc1ccc(C(F)(F)F)cc1 17.8 µM [inhibitor, single point]
Cc1noc(C)c1COc1ccccc1C(=O)N(C)Cc1ccc(C(C)(C)C)cc1 15.8 µM [inhibitor, partial curve, poor fit]
COc1ccc(N(CC(C)C)S(=O)(=O)c2nnc(NC(=O)c3ccco3)s2)cc1 22.4 µM [inhibitor, single point] and 28.2 µM [inhibitor, single point]
C[C@@H]1CN([C@H](C)CO)S(=O)(=O)c2ccc(C#CC3CCCCC3)cc2O[C@H]1CN(C)C(=O)Cc1ccncc1 10 µM [inhibitor, partial curve, poor fit]
Cc1[nH]c2ccccc2c1/C=C/C(=O)c1ccccc1 2 µM [inhibitor, partial curve, poor fit]
CCc1ccc(NC(=O)Cn2nc(C(F)(F)F)c3c2CCCC3)cc1 10 µM [inhibitor, partial curve]
CCOC(=O)C1=C(C)N=c2sc(=Cc3cc(Cl)c(OCC(=O)O)c(Cl)c3)c(=O)n2C1c1cccc(OC)c1 (centres undefined) 12.6 µM [inhibitor, partial curve, poor fit]
COc1cc(NC(=O)c2ccc(-c3nc(CSc4ccccc4)c(C)o3)cc2)cc(OC)c1 7.08 µM [inhibitor, partial curve, poor fit]
CCOC(=O)/C(=C\c1ccc(N2CCC(c3ccccc3)=N2)cc1)C(C)=O 0.501 µM [inhibitor, full curve, poor fit]
CN(C)C(CNC(=O)c1cccc(S(=O)(=O)N2CC3(C)CC2CC(C)(C)C3)c1)c1ccco1 (centres undefined) 20 µM [inhibitor, single point]
CC1(C)CC(=O)C=C(c2ccc(COC(=O)/C=C/c3ccccc3)cc2)C1=O 11.2 µM [inhibitor, single point]
O=C(NCCc1ccccc1)c1cccc(N2CCCC2=O)c1 6.31 µM [inhibitor, partial curve, poor fit]
CCCNC(=S)N1CCN(Cc2ccc3c(c2)OCO3)CC1 28.2 µM [inhibitor, single point]
CCCCc1nnc(NC(=O)c2ccc(OCc3c(C)noc3C)cc2)s1 22.4 µM [inhibitor, single point]
CN(CC(=O)Nc1ccccc1Br)C(=O)c1ccccc1OCc1ccc(Cl)cc1 7.94 µM [inhibitor, partial curve, poor fit]
COC(=O)c1ccccc1NC(=O)Cn1nnc(-c2ccc(OC)cc2)n1 4.47 µM [inhibitor, full curve, poor fit]
CCCCNC(=S)NNC(=O)c1csc(C)c1C 12.6 µM [inhibitor, single point]
Cc1ccc(S(=O)(=O)N2CCOCC2)cc1C(=O)Nc1ccc(N2CCCCCC2)cc1 8.91 µM [inhibitor, partial curve]
CC1(C)CC(=O)C=C(Nc2ccc(OCC(F)(F)C(F)F)cc2)C1 10 µM [inhibitor, partial curve, poor fit]
FC(F)Oc1ccc(NC(=S)NNc2ccnc3cc(Cl)ccc23)cc1 11.2 µM [inhibitor, partial curve, poor fit]
Oc1c(Br)cc(Br)cc1C=Nc1cccc2ncccc12 11.2 µM [inhibitor, partial curve, poor fit]
CCc1nn2c(NCCCO)cc(C)nc2c1-c1ccc(F)cc1 28.2 µM [inhibitor, single point]
COc1ccccc1N1CCN(C(=O)CSc2ncccc2-c2nc3ccccc3[nH]2)CC1 28.2 µM [inhibitor, single point]
S=C(Nc1ccc(Br)cc1)N1CCn2cccc2C1c1cccnc1 (centres undefined) 11.2 µM [inhibitor, partial curve, poor fit]
Cc1ccc(NC(=S)N/N=C/c2c(C)[nH]c3ccccc23)cc1 10 µM [inhibitor, partial curve, poor fit]
CCOC(=O)C1=CN(Cc2ccco2)S(=O)(=O)N(C)C1c1ccc(F)c(Cl)c1 (centres undefined) 20 µM [inhibitor, single point]
CNC(=O)c1csc(Cc2c(Cl)sc3ccc(Cl)cc23)n1 31.6 µM [inhibitor, single point]
COc1ccc(C2NC3=C(CCC3)C3(C#N)C(OC)(OC)N=C(N)C23C#N)cc1 (centres undefined) 6.31 µM [inhibitor, partial curve]
COc1ccccc1CNC(=O)COC(=O)c1c[nH]c2ccccc12 3.55 µM [inhibitor, partial curve, poor fit]
O=C(CSc1ccc(Cl)cc1)NC1CCCc2ccccc21 (centres undefined) 5.01 µM [inhibitor, full curve]
CCCCCCC(=O)Nc1ccc(Cl)cn1 28.2 µM [inhibitor, single point]
CCOc1ccc(C(=O)C[n+]2ccc(C(=O)NCc3ccccc3)cc2)cc1 8.91 µM [inhibitor, partial curve, poor fit]
Cc1cccc(CC(=O)c2c[nH]c3ccccc23)c1 31.6 µM [inhibitor, single point]
O=C(c1ccsc1)N1CCCC(N2CCN(c3cccc(C(F)(F)F)c3)CC2)C1 (centres undefined) 10 µM [inhibitor, partial curve, poor fit]
Cc1cc(Cl)c2oc(C(=O)N(C)CCCCN3CCOCC3)c(C)c2c1 10 µM [inhibitor, single point]
CC(C)Cn1c(CN2CCN(c3cccc(Cl)c3)CC2)nc2c1c(=O)[nH]c(=O)n2C 28.2 µM [inhibitor, single point]
CC(NCc1cc(Br)ccc1OCC(N)=O)C12CC3CC(CC(C3)C1)C2 (centres undefined) 20 µM [inhibitor, partial curve, poor fit]
Cc1cccc(N2CCN(C(=O)Cc3ccc(-n4c(=O)[nH]c5ccsc5c4=O)cc3)CC2C)c1 (centres undefined) 28.2 µM [inhibitor, single point]
O=C(CCN1CCN(CCO)CC1)Nc1ccc(C2CCCC2)cc1 15.8 µM [inhibitor, single point]
CCN(CC)c1ccc(NC(=S)NC(=O)c2cccs2)cc1 5.62 µM [inhibitor, full curve, poor fit]
CC(C)Cn1c(-c2ccccc2Cl)nc2ccccc21 11.2 µM [inhibitor, partial curve, poor fit]
